In all, about 44,000 compounds went through this assay and about 340 (0.77%) were called active. Another 5% or so got no clear call; they are omitted. The call rests on the fitted dose curve; in most records, active means well fitted inhibition curve with a large enough effect; inconclusive means small, poorly fitted or top-dose-only effect; inactive means flat fitted curve, though single readings scatter. Some of the results follow.
Experiment: Acumen qHTS Assay for Inhibitors of the mTORC1 Signaling Pathway in MEF (Tsc2-/-, p53-/-) Cells: Sytravon;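 further: plate controls were DMSO for no effect and rapamycin for full effect; nearly all actives have a fitted effect of over 50% in size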
Details: phospho-rpS6 immunofluorescence/PI, 24 h; series mostly up to 38.3 µM; activity change, negative = inhibition: at the top concentration
Outline: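 Read-out: phospho-S6 Alexa-488 intensity over PI intensity per well, scored as % active cells using thresholds from rapamycin (7.5 nM) and DMSO controls. Tsc2-/-, p53-/- MEFs exposed to compound for 24 h; PI cell count recorded as viability.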

Activity change, negative = inhibition, inactive:
CCOc1ccccc1NC(=O)c1c(C)cc(C)nc1SCC(=O)c1cccc(OC)c1 -11.2%, COc1ccc(CNC(=O)CCn2nc(C)c3c(C)n(-c4ccccc4)nc3c2=O)cc1OC 0.469%, Cc1ccc(NC(=O)CCCn2nc(C)c3c(C)n(-c4ccccc4)nc3c2=O)cc1Cl -7.31%, O=C(CN1CCN(c2ccc(Cl)cc2)CC1)Nc1ccc(F)cc1F 1.88%, Cc1cccn2c(=O)c(/C=C(\C#N)c3nc4ccccc4n3C)c(Oc3ccc(Br)cc3)nc12 -20%, CCOc1ccc(N(CC(=O)Nc2ccc(F)cc2F)S(=O)(=O)c2c(C)[nH]c(=O)[nH]c2=O)cc1 -2.67%, COc1ccc(CNC(=O)C(=O)NCC(c2cccs2)S(=O)(=O)c2ccc(F)cc2)cc1 (stereo unspecified) -0.41%, COc1ccc(CN(CCC(c2ccc3c(c2)OCO3)c2ccccc2OC)C(C)=O)cc1 (stereo unspecified) 1.62%, CCOCCCn1c(=N)c(S(=O)(=O)c2ccc(C)cc2)cc2c(=O)n3cccc(C)c3nc21 6.39%, Cc1ccc(NC(=O)c2c(Nc3ccccc3C)sc(C(=O)c3ccccc3)c2N)cc1 -14.1%, O=C(NCC(c1ccc2c(c1)OCO2)N1CCN(c2ccccc2)CC1)c1ccccc1F (stereo unspecified) 3.94%, CC(=O)N1CCCc2cc(S(=O)(=O)N(C)CC(=O)Nc3ccc(F)cc3Cl)ccc21 -13.4%, CCc1nn(CC(=O)NC(C)C)c(=O)c2cc3cc(F)ccc3n12 -3.78%, CCOC(=O)c1ccc(OCC2c3cc(OC)c(OC)cc3CCN2C(=O)Cc2ccc(F)cc2)cc1 (stereo unspecified) -15.7%, Cc1ccc(Cl)cc1NC(=O)c1cnc(N2CCCCC2)c2ccccc12 3.37%, N#Cc1ccc(C(=O)Nc2cc3nn(-c4ccccc4)nc3cc2Cl)c(F)c1 -7.31%, CCOC(=O)C1CCN(S(=O)(=O)c2cc(Br)cc3c2N(C(=O)CC)CC3)CC1 -2.45%, CCCC(=O)NCC1(N(C)C)CCCCC1 -1.21%, COc1ccc(NC(=O)C(=O)NCCc2csc(-c3ccc(Cl)cc3)n2)cc1OC 0.473%, COc1ccc(-c2nc3scc(CCNS(=O)(=O)c4ccc(C)cc4)n3n2)cc1 4.64%, CCOc1cc2sc(N3CCC(C(=O)Nc4ccc(C)cc4C)CC3)nc2cc1Br -8.23%, COc1ccccc1NC(=O)C(=O)NCC(c1ccc2c(c1)OCO2)N1CCN(C)CC1 (stereo unspecified) -6.38%, CCN1CCN(c2ncc3c(n2)CCN(Cc2cc(F)cc(F)c2)C3)CC1 1.2%, COc1ccc(S(=O)(=O)N(CC(=O)Nc2ccccc2Br)Cc2ccccc2)cc1 -4.75%, Cn1c(=NC(=O)c2ccc(S(=O)(=O)N3CCCc4ccccc43)cc2)sc2cc(F)ccc21 18.1%, CC(C)OCCCn1c(=O)c2ccccc2n2c(-c3ccc(F)cc3)nnc12 0%, Cc1cccc(C(=O)Nc2c(-c3ccccc3)nc3cc(C)ccn23)c1 7.39%, COC(=O)c1ccc(NC(=O)CSc2nc(=O)[nH]c3c2CCCC3)cc1 -7.41%, CCOC(=O)COc1ccc([N+](=O)[O-])cc1-c1ccnc2cc(-c3ccc(Cl)cc3)nn12 -14.8%, CCc1ccc(CN(Cc2ccco2)c2cnc(S(C)(=O)=O)nc2C(=O)Nc2cccc(C)c2)cc1 -4.86%, CN(C)c1ccc(C(CNC(=O)c2ccccc2)N2CCc3ccccc32)cc1 (stereo unspecified) 0%, CC(C)CC(=O)Nc1cccc(-c2nc3ccccc3[nH]2)c1 -2.25%, Cc1cccc(-c2noc(-c3ccccc3OCC(=O)Nc3ccc([N+](=O)[O-])cc3)n2)c1 0.537%, COc1ccccc1CNc1nc(-c2ccco2)nn1S(=O)(=O)c1ccc2ccccc2c1 -5.23%, Cc1ccccc1C(=O)Nc1sc2c(c1C(=O)NCc1ccco1)CCC(C(C)(C)C)C2 (stereo unspecified) -0.189%, COCCCNC(=O)c1oc2c(c1C)-c1nn(Cc3ccccc3Cl)cc1CC2 0.0257%, CNC(=O)C1CCC(Cn2c(=O)c3sccc3n(CC(=O)NCc3ccccc3)c2=O)CC1 (stereo unspecified) 3.97%, Cc1ccc(SCCNC(=O)CN(c2ccccc2)S(=O)(=O)N(C)C)cc1 -4.21%, CCOc1cc(C(=O)OCc2cc(=O)n3nc(CC)sc3n2)cc(OCC)c1OCC 14.7%, CCC(=O)N1CCc2cc(Br)cc(S(=O)(=O)N3CCCC(C(=O)Nc4ccc(C(C)C)cc4)C3)c21 (stereo unspecified) 0.238%, CC1CCC(C(=O)NC(C(=O)OCC(=O)c2ccccc2)C(C)C)CC1 (stereo unspecified) 2.67%, CCc1cnc2c(c1SCC(=O)c1ccccc1)c(=O)n(C)c(=O)n2C -2.22%, COc1ccc(-c2ccc(NS(=O)(=O)c3ccc(OC)c(OC)c3)cc2)nn1 1.87%, CCOc1sc2nc(C)n(CC(=O)Nc3cccc(C)c3)c(=O)c2c1C 1.19%, CCCCC(=O)N(c1ccc2oc(C)c(C(C)=O)c2c1)S(=O)(=O)c1ccc(F)cc1C -17.1%, COC(=O)c1ccccc1NC(=O)c1c(C)oc2ncn(C)c(=O)c12 0.0083%, COc1ccc(OCc2nc3ccccc3n2Cc2ccccc2Cl)cc1 1.61%, Cc1ccc(CNS(=O)(=O)c2cc3[nH]c(=O)c(=O)[nH]c3cc2C)cc1 -5.11%, Cc1cn2c(=O)cc(COc3ccccc3NC(=O)c3ccco3)nc2s1 -5.12%, Cc1ccc(S(=O)(=O)NC2(C(F)(F)F)C(=O)Nc3c2c(=O)[nH]c(=O)n3-c2ccccc2)cc1 (stereo unspecified) -2.53%, O=S(=O)(c1ccc(Br)cc1)c1nnn2c1nc(N1CCOCC1)c1sccc12 -1.75%, NC(=O)c1nc(-c2ccc(F)c(F)c2)nc2c1[nH]c(=O)n2-c1cccc(Cl)c1 -0.0187%, CCN1CCN(CCCNC(=O)c2cnn(-c3ccc(C)cc3C)c2C2CCN(C(=O)OC(C)(C)C)CC2)CC1 5.33%, O=C(COC(=O)c1cc(-c2ccccc2)nc2ccccc12)c1ccc(Br)cc1 -21.8%, Cc1ccc(C(=O)Nc2ccc3nc(SCC(=O)N4CCCc5ccccc54)sc3c2)cc1 -23.4%, CSc1nc2sc3c(c2c(=O)n1Cc1ccccc1)CCC(C(C)(C)C)C3 (stereo unspecified) 8.42%, CC(C)(C)NC(=O)N1CCC(C(=O)O)CC1 -0.273%, Cc1ccc(CNC(=O)Cc2ccc(NC(=O)N3CCSc4ncccc43)cc2)cc1 0.113%, CCc1ccccc1NC(=O)c1ccc2c(c1)nnn2C1CCCC1 0%, CCCNC(=O)c1ccc(Cn2c(=O)c3cccn3c3cccnc32)cc1 -0.356%, CCOc1ccccc1NC(=O)CN1C(=O)COc2ccc(S(=O)(=O)NC3CCCC3)cc21 1.13%
